These results are taken from patent US7893299B2, “Interleukin-1 and tumor necrosis factor-αmodulators; syntheses of such modulators and methods of using such modulators” (Nereus Pharmaceuticals, Inc., priority 2005, dated 2011).

In series [1] the test system is TNF production in RAW264.7 cells. The series is described as follows: RAW264.7 LPS/TNF assay (ELISA). The format is cell-based, murine. The note with it: 4 hr; for inhibition at 10 µM: Mus musculus, RAW264.7, LPS 10 ng/ml, read-out: Inhibition (%) at 10 μM (TNF-α inhibitory activity). The procedure:
After 4 hr LPS stimulation, supernatants were harvested and analyzed for TNF production by ELISA.
DMSO was used as control. Identical sets of plates without LPS stimulation were used for the cytotoxicity assessment.
Various concentrations of NPI-1387 prepared in DMSO were added to cells 1 hr before LPS (10 ng/ml) stimulation. DMSO was used as a control. After 4 hr of LPS stimulation, supernatants were harvested and the level of TNF-α from each sample was analyzed by using the human TNF-α cytoset ELISA kit (Biosource Internationals). IC50 values (the drug concentration at which 50% of the maximal observed TNF-α production is inhibited) were determined using a standard sigmoidal dose response curve fitting algorithm (Prism 2.0, GraphPad Software Inc).

The test system of series [2] is IL-6 synthesis in RAW 264.7 cells. The series is described as follows: SAC-induced IL-6 synthesis in RAW 264.7 cells. The format is cell-based, Murine. Here is the method:
(§1) Murine macrophage cells RAW 264.7 (1×10^6/ml) were pretreated for 30-60 minutes with varying doses of the synthetic compound of Formula (I) and a panel of analogs (diluted in 0.5% DMSO) prior to stimulation with various agents such as lipopolysaccharide (LPS) or a gram positive agent like heat-killed Staph aureus (SAC). Supernatants collected over a 72-hour period will be assayed for the levels of TNF-α, IL-1, IL-6, IL-10, IL-12 and other cytokines either by elisa or bioassay. Additional studies to evaluate the effects of the synthetic compound of Formulae (I), (II), (IIA) and (IIB) on cytokine signaling pathways such as, for example, Caspase-activity (Nr-1, Nr.3), transcription factors such as NF-κB, MAP-kinase activity (p38, ERK and JNK) will also be performed.

Series [3] has as its system TNF-α synthesis in RAW 264.7 cells. In words: LPS-induced TNF-α synthesis in RAW 264.7 cells. It is filed as cell-based, Murine. The procedure: as §1
Series [4] relates to IL-1 synthesis in RAW 264.7 cells. The series is described as follows: SAC-induced IL-1 synthesis in RAW 264.7 cells. The format is cell-based, Murine. Here is the method: as §1
Series [5] deals with TNF-α synthesis in RAW 264.7 cells. The series is described as follows: SAC-induced TNF-α synthesis in RAW 264.7 cells. It is filed as cell-based, Murine. The procedure: as §1
The next series deals with RAW264.7 cells. The series is described as follows: RAW264.7 cell viability / apoptosis, propidium iodide flow cytometry. It is filed as cell-based, Murine. The note with it: 10 μM. The procedure: To determine whether the test compounds induce apoptosis, flow cytometric measurement of propidium iodide (PI) staining was performed after incubation of the cells with 0.005% PI, following published protocols. Cells were analyzed in a FACScan cytometer equipped with a 25-mW argon laser. The quantification of the percentage of apoptotic cells was calculated using a dot plot of the forward scatter against the PI fluorescence. Cell sorting and analysis of viable and apoptotic populations was performed to confirm the criteria of gating.
A general note: Flow cytometry measures light scatter and fluorescence of single cells or particles in a stream.

In general, inhibition refers to how much of the control response was suppressed. Consider `C=C[C@@]1(C)CC=C2[C@@H](CC[C@@H]3[C@](C)(COS(=O)(=O)c4ccc(C(=O)O)cc4)CCC[C@@]23C)C1`, for which the inhibition at 10 µM in series [1] was 41%.

`C=C[C@@]1(C)CC=C2[C@@H](CC[C@@H]3[C@](C)(C(=O)O)CCC[C@@]23C)C1` [Formula (I), acanthoic acid, reference compound]: the figures for the IL-6 in series [2] (compound at 0.1 μg/ml), in series [2] (compound at 1 μg/ml) and in series [2] (compound at 10 μg/ml) were 65 ng/mL, 90 ng/mL and 80 ng/mL, respectively. In addition, the TNF-α in series [3] (compound at 0.1 μg/ml) is 108 ng/mL; in series [3] (compound at 1 μg/ml), 67 ng/mL; in series [3] (compound at 10 μg/ml), 50 ng/mL; in series [5] (compound at 0.1 μg/ml) it was 410 ng/mL; in series [5] (compound at 1 μg/ml), 275 ng/mL; in series [5] (compound at 10 μg/ml), 165 ng/mL. For the same compound, the IL-1α in series [4] (compound at 0.1 μg/ml) came out at 1350 pg/mL; in series [4] (compound at 1 μg/ml) it was 1050 pg/mL; in series [4] (compound at 10 μg/ml) it was 350 pg/mL. With `C=C[C@@]1(C)CC=C2[C@@H](CC[C@@H]3[C@](C)(C(=O)c4ccccc4)CCC[C@@]23C)C1`, the inhibition at 10 µM in series [1] was determined as 6.9%. Same read-out and setting: then `C=C[C@@]1(C)CC=C2[C@@H](CC[C@@H]3[C@](C)(C(=O)NCC(C)C)CCC[C@@]23C)C1`, with 41.9%; and `C=C[C@@]1(C)CC=C2[C@@H](CC[C@@H]3[C@](C)(C(=O)NCCC(=O)O)CCC[C@@]23C)C1`, with 10.3%; and `C=C[C@@]1(C)CC=C2[C@@H](CC[C@H]3[C@@]2(C)CCC[C@@]3(C)C(C)O)C1` (stereo partly drawn), with 41.9%. Regarding `C=C[C@@]1(C)CC=C2[C@@H](CC[C@@H]3[C@](C)(COC(=O)CN4CCN(S(=O)(=O)c5ccc(C)cc5)CC4)CCC[C@@]23C)C1`, the inhibition at 10 µM in series [1] worked out at 11%.

As to `C=C[C@@]1(C)CC=C2[C@@H](CC[C@@H]3[C@](C)(C(=O)N[C@H](C)C(=O)O)CCC[C@@]23C)C1`, in series [1], the inhibition at 10 µM was 41.6%. Consider `C=C[C@@]1(C)CC=C2[C@@H](CC[C@@H]3[C@](C)(COC(=O)CN4CCNCC4)CCC[C@@]23C)C1`, for which, in series [1], the inhibition at 10 µM was 48%. `C=C[C@@]1(C)CC=C2[C@@H](CC[C@@H]3[C@](C)(C(=O)N4CCCC4)CCC[C@@]23C)C1`: in series [1], the inhibition at 10 µM was 33.4%. Take `C=C[C@@]1(C)CC=C2[C@@H](CC[C@@H]3[C@](C)(COC(=O)CCC(C)(C)C(=O)O)CCC[C@@]23C)C1`: the inhibition at 10 µM in series [1] was determined as 30%. Regarding `C=C[C@@]1(C)CC=C2[C@@H](CC[C@@H]3[C@](C)(COC(=O)CN4CCN(C(C)=O)CC4)CCC[C@@]23C)C1`, the inhibition at 10 µM in series [1] was determined as 18%. For the compound `C=C[C@@]1(C)CC=C2[C@@H](CC[C@H]3[C@@]2(C)CCC[C@@]3(C)C(O)c2ccccc2)C1` (stereo partly drawn), the inhibition at 10 µM in series [1] was found to be 23.1%. Take `C=C[C@@]1(C)CC=C2[C@@H](CC[C@@H]3[C@](C)(C(=O)N[C@@H](C)C(=O)O)CCC[C@@]23C)C1`: the inhibition at 10 µM in series [1] worked out at 96.7%. Turning to `C=C[C@@]1(C)CC=C2[C@@H](CC[C@@H]3[C@](C)(C(=O)/C=C/C)CCC[C@@]23C)C1`, the inhibition at 10 µM in series [1] amounted to 29%. For the compound `C=C[C@@]1(C)CC=C2[C@@H](CC[C@@H]3[C@](C)(COS(=O)(=O)c4ccccc4)CCC[C@@]23C)C1`, in series [1], the inhibition at 10 µM was found to be 32%.

`C=C[C@@]1(C)CCC=C2[C@H]1CC[C@@H]1[C@](C)(C(=O)N3CCOCC3)CCC[C@@]21C` [LT-1-85]: the RAW264.7 cell viability entry with RAW264.7 cells is on record as “did not affect”. As to `C=C[C@@]1(C)CC=C2[C@@H](CC[C@@H]3[C@](C)(COC(=O)CN4CCN(S(C)(=O)=O)CC4)CCC[C@@]23C)C1`, in series [1], the inhibition at 10 µM is 17%.

`C=C[C@@]1(C)CC=C2[C@@H](CC[C@@H]3[C@](C)(COS(C)(=O)=O)CCC[C@@]23C)C1`: in series [1], the inhibition at 10 µM turned out to be 74%.

For the compound `C=C[C@@]1(C)CC=C2[C@@H](CC[C@@H]3[C@](C)(COS(=O)(=O)c4ccc(OC)cc4)CCC[C@@]23C)C1`, the inhibition at 10 µM in series [1] stood at 32%. On to `C=C[C@@]1(C)CC=C2[C@@H](CC[C@@H]3[C@](C)(COS(=O)(=O)c4ccc(I)cc4)CCC[C@@]23C)C1`, for which, in series [1], the inhibition at 10 µM turned out to be 28%. As to `C=C[C@@]1(C)CC=C2[C@@H](CC[C@@H]3[C@](C)(C(=O)N[C@@H](Cc4ccccc4)C(=O)O)CCC[C@@]23C)C1`, in series [1], the inhibition at 10 µM is 85%. Still for that read-out and setting: then `C=C[C@@]1(C)CC=C2[C@@H](CC[C@@H]3[C@](C)(COC(=O)CN4CCN(S(=O)(=O)c5ccc(OC)cc5)CC4)CCC[C@@]23C)C1`, with 32%; and `C=C[C@@]1(C)CC=C2[C@@H](CC[C@@H]3[C@](C)(C(=O)N[C@@H](CC(C)C)C(=O)O)CCC[C@@]23C)C1`, with 81%.

Take `C=C[C@@]1(C)CC=C2[C@@H](CC[C@@H]3[C@](C)(C(=O)N[C@H](C(=O)O)c4ccccc4)CCC[C@@]23C)C1`: in series [1], the inhibition at 10 µM was 95%. Same read-out and setting: next, `C=C[C@@]1(C)CC=C2[C@@H](CC[C@@H]3[C@](C)(CO)CCC[C@@]23C)C1`: 28.6%. Still for that read-out and setting: then `C=C[C@@]1(C)CC=C2[C@@H](CC[C@@H]3[C@](C)(COC(=O)CC(C)(C)C(=O)O)CCC[C@@]23C)C1`, with 86%; and `C=C[C@@]1(C)CC=C2[C@@H](CC[C@@H]3[C@](C)(C(=O)N[C@H](C(=O)O)C(C)C)CCC[C@@]23C)C1`, with 88%; and `C=C[C@@]1(C)CC=C2[C@@H](CC[C@@H]3[C@](C)(COC(=O)CCC(=O)O)CCC[C@@]23C)C1`, with 68.5%.

Take `C=C[C@@]1(C)CC=C2[C@@H](CC[C@H]3[C@@]2(C)CCC[C@@]3(C)/C=N/OCc2ccc(F)cc2)C1`: the inhibition at 10 µM in series [1] turned out to be 6%. Same read-out and setting: then `C=C[C@@]1(C)CC=C2[C@@H](CC[C@@H]3[C@](C)(C(=O)NCCCCCC)CCC[C@@]23C)C1`, with 41.4%; and `C=C[C@@]1(C)CC=C2[C@@H](CC[C@@H]3[C@](C)(C(=O)NCc4ccccc4)CCC[C@@]23C)C1`, with 56.9%. With `C=C[C@@]1(C)CC=C2[C@@H](CC[C@@H]3[C@](C)(COC(=O)COCC(=O)O)CCC[C@@]23C)C1`, the inhibition at 10 µM in series [1] was 11.5%. The same measure, in the same setting: then `C=C[C@@]1(C)CC=C2[C@@H](CC[C@@H]3[C@](C)(C(=O)NCC(=O)O)CCC[C@@]23C)C1`, with 6.3%.

`C=C[C@@]1(C)CC=C2[C@@H](CC[C@H]3[C@@]2(C)CCC[C@@]3(C)/C=N/OC)C1`: the “Inhibition (%) at 10 μM (TNF-α inhibitory activity)” value in series [1] (LPS 10 ng/ml) is “No Activity”.

In the case of `C=C[C@@]1(C)CC=C2[C@@H](CC[C@H]3[C@@]2(C)CCC[C@@]3(C)C(O)/C=C/C)C1` (stereo partly drawn), the inhibition at 10 µM in series [1] worked out at 48%. As to `C=C[C@@]1(C)CC=C2[C@@H](CC[C@@H]3[C@](C)(COC(=O)CC(C)(C)CC(=O)O)CCC[C@@]23C)C1`, the inhibition at 10 µM in series [1] stood at 81.9%. Regarding `C=C[C@@]1(C)CCC=C2[C@H]1CC[C@@H]1[C@](C)(C(=O)NC3CCCCC3)CCC[C@@]21C` [Formula (IIB-A1), N-Cyclohexylamide Derivative of TTL], the RAW264.7 cell viability result in the series with RAW264.7 cells is on record as “did not affect”. For the compound `C=C[C@@]1(C)CC=C2[C@@H](CC[C@H]3[C@@]2(C)CCC[C@@]3(C)/C=N/O)C1`, the inhibition at 10 µM in series [1] is 75.9%. As for `C=CC(=O)[C@]1(C)CCC[C@@]2(C)C3=CC[C@](C)(C=C)C[C@@H]3CC[C@H]12`, in series [1], the inhibition at 10 µM amounted to 96%. `C=CC(O)[C@]1(C)CCC[C@@]2(C)C3=CC[C@](C)(C=C)C[C@@H]3CC[C@@H]21` (stereo partly drawn): the inhibition at 10 µM in series [1] worked out at 27.6%. Regarding `C=C[C@@]1(C)CC=C2[C@@H](CC[C@@H]3[C@](C)(C(C)=O)CCC[C@@]23C)C1`, in series [1], the inhibition at 10 µM is 7%. As to `C=C[C@@]1(C)CC=C2[C@@H](CC[C@H]3[C@@]2(C)CCC[C@@]3(C)/C=N/OCc2ccccc2)C1`, the inhibition at 10 µM in series [1] came to 13%.
